{"source": "the supplement of paper PMC3334620", "note": "In all, about 33,000 sequences were measured (“E-score (-0.5 to 0.5)”: median about -0.053, highest 2% from about 0.37 on). This is one part of the list.", "data": [{"target": "Hap1 (UniProt P0CE41)", "sequence (P0CE41 whole entry, the tested form may be a part)": "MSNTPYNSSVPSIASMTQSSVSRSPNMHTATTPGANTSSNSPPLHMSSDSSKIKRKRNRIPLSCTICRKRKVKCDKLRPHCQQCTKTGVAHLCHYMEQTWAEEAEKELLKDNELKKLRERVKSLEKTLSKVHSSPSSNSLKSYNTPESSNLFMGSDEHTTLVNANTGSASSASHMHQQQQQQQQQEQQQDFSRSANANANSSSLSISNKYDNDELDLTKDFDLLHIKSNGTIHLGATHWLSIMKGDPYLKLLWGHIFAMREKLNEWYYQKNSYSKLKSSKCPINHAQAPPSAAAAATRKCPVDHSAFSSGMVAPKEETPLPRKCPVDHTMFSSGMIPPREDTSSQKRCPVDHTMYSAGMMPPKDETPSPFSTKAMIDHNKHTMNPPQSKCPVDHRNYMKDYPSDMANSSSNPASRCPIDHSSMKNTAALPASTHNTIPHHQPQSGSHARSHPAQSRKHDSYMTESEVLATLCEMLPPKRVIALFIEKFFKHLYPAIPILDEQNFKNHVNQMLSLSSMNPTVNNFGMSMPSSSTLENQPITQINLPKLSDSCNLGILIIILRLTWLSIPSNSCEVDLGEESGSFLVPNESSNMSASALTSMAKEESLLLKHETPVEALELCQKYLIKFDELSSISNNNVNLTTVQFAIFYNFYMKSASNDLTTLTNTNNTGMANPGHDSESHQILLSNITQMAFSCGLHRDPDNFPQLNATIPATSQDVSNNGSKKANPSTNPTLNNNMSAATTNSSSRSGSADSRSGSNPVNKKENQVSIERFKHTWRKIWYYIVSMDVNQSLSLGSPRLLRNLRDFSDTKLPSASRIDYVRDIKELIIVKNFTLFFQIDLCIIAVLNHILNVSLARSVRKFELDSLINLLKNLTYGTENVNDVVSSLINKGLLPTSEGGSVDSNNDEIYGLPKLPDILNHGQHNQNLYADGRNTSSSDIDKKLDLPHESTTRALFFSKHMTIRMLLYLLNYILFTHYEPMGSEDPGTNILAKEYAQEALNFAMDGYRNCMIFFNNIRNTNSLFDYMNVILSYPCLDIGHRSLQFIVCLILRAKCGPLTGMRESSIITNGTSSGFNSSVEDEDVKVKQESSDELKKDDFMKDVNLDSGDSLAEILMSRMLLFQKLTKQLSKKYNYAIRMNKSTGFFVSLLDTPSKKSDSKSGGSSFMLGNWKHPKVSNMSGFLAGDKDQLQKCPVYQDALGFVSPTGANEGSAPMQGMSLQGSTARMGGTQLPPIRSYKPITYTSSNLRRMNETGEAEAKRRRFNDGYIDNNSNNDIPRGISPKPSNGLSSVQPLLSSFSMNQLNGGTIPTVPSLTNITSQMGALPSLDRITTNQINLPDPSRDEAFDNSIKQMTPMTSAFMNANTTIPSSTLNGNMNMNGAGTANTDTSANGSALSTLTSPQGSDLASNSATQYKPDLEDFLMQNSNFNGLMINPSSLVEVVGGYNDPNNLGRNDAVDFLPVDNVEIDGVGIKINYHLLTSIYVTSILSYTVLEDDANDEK", "test": "PBM E-score (8-mer binding enrichment) (E-score (-0.5 to 0.5)); higher = stronger / more preferred TF binding; most listed sequences are background and not binding sites", "conditions": "protein concentration: 200 nM; construct: GST-DNA-binding domain", "method_in_brief": "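Detection of bound protein used fluorescent anti-GST, with scans normalised by masliner. The proteins were GST-tagged yeast transcription factors applied at about 100-200 nM to universal all-10-mer Agilent arrays made double-stranded by primer extension. Each ungapped eight-base word, pooled with its reverse complement, was scored with an E-score from the Universal PBM Analysis Suite.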", "values": [{"sequence": "GGGCAATA", "PBM E-score": 0.159}, {"sequence": "ATATCAGC", "PBM E-score": 0.0739}, {"sequence": "CGACTTTA", "PBM E-score": -0.112}, {"sequence": "TGAATGAA", "PBM E-score": -0.155}, {"sequence": "AAAGACGG", "PBM E-score": -0.0371}, {"sequence": "AACGTGTA", "PBM E-score": -0.228}, {"sequence": "AATATGGA", "PBM E-score": -0.205}, {"sequence": "ATACAGCC", "PBM E-score": 0.0195}, {"sequence": "CACCCCGC", "PBM E-score": 0.198}, {"sequence": "ACGCACCT", "PBM E-score": -0.185}, {"sequence": "CTTGTGAC", "PBM E-score": -0.124}, {"sequence": "CCATACCA", "PBM E-score": -0.09}, {"sequence": "ATGGACCG", "PBM E-score": 0.227}, {"sequence": "CATGGTTC", "PBM E-score": -0.0797}, {"sequence": "ATTGAGGC", "PBM E-score": -0.026}, {"sequence": "AGCTCAGA", "PBM E-score": -0.192}, {"sequence": "CAGGTTCC", "PBM E-score": -0.0688}, {"sequence": "GGTCTTAC", "PBM E-score": 0.0304}, {"sequence": "ACTTGGCC", "PBM E-score": -0.00291}, {"sequence": "CGCCTTCA", "PBM E-score": -0.186}, {"sequence": "AACTGGAA", "PBM E-score": -0.118}, {"sequence": "CCGCTTGC", "PBM E-score": 0.0503}, {"sequence": "CATCAATC", "PBM E-score": -0.109}, {"sequence": "GAGGAACC", "PBM E-score": -0.0105}, {"sequence": "AGTGTGTG", "PBM E-score": -0.23}, {"sequence": "GAGCATTA", "PBM E-score": -0.104}, {"sequence": "AGGAACGC", "PBM E-score": -0.121}, {"sequence": "CTTTCGGA", "PBM E-score": 0.399}, {"sequence": "CTCTCTAA", "PBM E-score": -0.341}, {"sequence": "ATCTCCTA", "PBM E-score": -0.188}, {"sequence": "CTGAGCCC", "PBM E-score": -0.19}, {"sequence": "ACTACACC", "PBM E-score": 0.0164}, {"sequence": "AGGTCTCC", "PBM E-score": -0.14}, {"sequence": "CAATAGAA", "PBM E-score": -0.194}, {"sequence": "ACGTGCAC", "PBM E-score": -0.134}, {"sequence": "GCCTGAGC", "PBM E-score": -0.197}, {"sequence": "ACTACGGG", "PBM E-score": 0.212}, {"sequence": "GTGGCAAA", "PBM E-score": -0.0776}, {"sequence": "ATGGGGGG", "PBM E-score": -0.125}, {"sequence": "CTAGCATC", "PBM E-score": -0.153}, {"sequence": "ACAACTGT", "PBM E-score": -0.217}, {"sequence": "CGGGACGC", "PBM E-score": 0.222}, {"sequence": "AAGAGCTC", "PBM E-score": -0.142}, {"sequence": "ACCCGATC", "PBM E-score": 0.244}, {"sequence": "AAGTGCAG", "PBM E-score": -0.268}, {"sequence": "CACCTAGG", "PBM E-score": -0.164}, {"sequence": "AGTGCCTA", "PBM E-score": -0.237}, {"sequence": "ACTGCGAG", "PBM E-score": -0.0121}, {"sequence": "AATTTGGG", "PBM E-score": -0.241}, {"sequence": "ATCCCAAT", "PBM E-score": -0.219}, {"sequence": "AGAGCGCA", "PBM E-score": -0.23}, {"sequence": "AACTCGAC", "PBM E-score": -0.103}, {"sequence": "AAGAGGGT", "PBM E-score": -0.167}, {"sequence": "AGTCAATC", "PBM E-score": -0.153}, {"sequence": "ACTGGGCT", "PBM E-score": -0.128}, {"sequence": "AGTAATTG", "PBM E-score": -0.119}, {"sequence": "GTTAAGGA", "PBM E-score": -0.0731}, {"sequence": "AGACTGAC", "PBM E-score": -0.15}, {"sequence": "CTTGCCTA", "PBM E-score": -0.386}, {"sequence": "ATGTATAG", "PBM E-score": -0.148}, {"sequence": "CACCGGCA", "PBM E-score": 0.201}, {"sequence": "CTGCGTCA", "PBM E-score": -0.197}, {"sequence": "AGTTCGTC", "PBM E-score": -0.134}, {"sequence": "ATTGCCTA", "PBM E-score": -0.216}, {"sequence": "CGCGTCCC", "PBM E-score": 0.0375}, {"sequence": "AGGCTTCG", "PBM E-score": 0.181}, {"sequence": "ACGCTCCG", "PBM E-score": 0.24}, {"sequence": "GATCTTAA", "PBM E-score": -0.0383}, {"sequence": "GCACGCGC", "PBM E-score": -0.0115}, {"sequence": "ACGAGATC", "PBM E-score": -0.15}, {"sequence": "GATATTAA", "PBM E-score": 0.266}, {"sequence": "AGCGAGCG", "PBM E-score": 0.0982}, {"sequence": "GATCTTAC", "PBM E-score": "-5e-05"}, {"sequence": "CTTCAAGA", "PBM E-score": -0.235}, {"sequence": "GACACGTC", "PBM E-score": 0.0131}, {"sequence": "AACTTTAG", "PBM E-score": -0.0782}, {"sequence": "AGCCCTCC", "PBM E-score": -0.192}, {"sequence": "CGAGGCGA", "PBM E-score": 0.049}, {"sequence": "AATACACG", "PBM E-score": -0.17}, {"sequence": "AGGCGGAC", "PBM E-score": 0.288}, {"sequence": "AGTTACGA", "PBM E-score": -0.0272}, {"sequence": "CGACATGC", "PBM E-score": -0.00382}, {"sequence": "GCTGAAGC", "PBM E-score": -0.138}, {"sequence": "CTCTCTTC", "PBM E-score": -0.178}, {"sequence": "AAGCTCAA", "PBM E-score": -0.167}, {"sequence": "CGACGAAA", "PBM E-score": -0.0556}, {"sequence": "CGGTCTGC", "PBM E-score": 0.132}, {"sequence": "AATTCCAT", "PBM E-score": 0.0073}, {"sequence": "ATTGTCCC", "PBM E-score": 0.0458}, {"sequence": "GATAACCC", "PBM E-score": 0.172}, {"sequence": "GACTTGGA", "PBM E-score": -0.045}, {"sequence": "CGTTGGAC", "PBM E-score": -0.166}, {"sequence": "AAAGAAGA", "PBM E-score": -0.0993}, {"sequence": "ACGGTGGC", "PBM E-score": -0.0332}, {"sequence": "CCGGTATC", "PBM E-score": 0.433}, {"sequence": "AACGCAGG", "PBM E-score": -0.0936}, {"sequence": "ACCCGGTG", "PBM E-score": 0.249}, {"sequence": "ACGATGAA", "PBM E-score": -0.126}, {"sequence": "CAAATGGC", "PBM E-score": -0.151}, {"sequence": "CATGCAAA", "PBM E-score": -0.042}, {"sequence": "CATCTCAG", "PBM E-score": -0.267}, {"sequence": "ACGACACC", "PBM E-score": 0.0827}, {"sequence": "CAGCTGCG", "PBM E-score": 0.0775}, {"sequence": "ACCGTAGA", "PBM E-score": -0.00694}, {"sequence": "ACGCGGAA", "PBM E-score": 0.217}, {"sequence": "AACCACCG", "PBM E-score": 0.253}, {"sequence": "CTATCGAA", "PBM E-score": -0.177}, {"sequence": "GTACTTCA", "PBM E-score": 0.032}, {"sequence": "AGCACTCA", "PBM E-score": -0.125}, {"sequence": "CATCATCA", "PBM E-score": -0.299}, {"sequence": "GACATTTA", "PBM E-score": -0.0868}, {"sequence": "AAGGGCGG", "PBM E-score": 0.0942}, {"sequence": "CGTACACG", "PBM E-score": -0.0669}, {"sequence": "GGCCAAAA", "PBM E-score": 0.0346}, {"sequence": "AGATGCGG", "PBM E-score": 0.0744}, {"sequence": "CACCATAG", "PBM E-score": -0.321}, {"sequence": "CATAACAC", "PBM E-score": -0.182}, {"sequence": "CCAACCTA", "PBM E-score": -0.0165}, {"sequence": "TGACTTAA", "PBM E-score": -0.151}, {"sequence": "ACACAAGC", "PBM E-score": -0.224}, {"sequence": "CGAATCCC", "PBM E-score": 0.18}, {"sequence": "ACACTACT", "PBM E-score": -0.105}, {"sequence": "AAATTCAA", "PBM E-score": -0.00826}, {"sequence": "CATCCTAA", "PBM E-score": -0.064}, {"sequence": "CATGACAA", "PBM E-score": -0.167}, {"sequence": "GAGAATAC", "PBM E-score": 0.055}, {"sequence": "CCGCATGA", "PBM E-score": -0.0486}, {"sequence": "CCCCGTCC", "PBM E-score": 0.271}, {"sequence": "AAGCCGCG", "PBM E-score": 0.263}, {"sequence": "CAGCCAGG", "PBM E-score": -0.342}, {"sequence": "ACGCCATA", "PBM E-score": -0.264}, {"sequence": "CCTCTAGC", "PBM E-score": -0.197}, {"sequence": "CTTTGTAC", "PBM E-score": -0.177}, {"sequence": "ATACCCAT", "PBM E-score": -0.149}, {"sequence": "AACACGTG", "PBM E-score": -0.0868}, {"sequence": "GGTCTTAA", "PBM E-score": 0.257}, {"sequence": "ACTGCCAG", "PBM E-score": -0.187}, {"sequence": "CTAGGCCA", "PBM E-score": -0.0035}, {"sequence": "TCTTGAAA", "PBM E-score": -0.121}, {"sequence": "AAAACGCA", "PBM E-score": -0.0721}, {"sequence": "ACAGAATG", "PBM E-score": -0.22}, {"sequence": "ACATTTGC", "PBM E-score": 0.088}, {"sequence": "ACAACCCG", "PBM E-score": 0.107}, {"sequence": "GGCCGCTA", "PBM E-score": 0.225}, {"sequence": "ATAGTATC", "PBM E-score": 0.126}, {"sequence": "AATGGACC", "PBM E-score": 0.209}, {"sequence": "AGCAAGTA", "PBM E-score": -0.0776}, {"sequence": "ACCTGATG", "PBM E-score": -0.242}, {"sequence": "CTGAGGAA", "PBM E-score": -0.11}, {"sequence": "GGTCTTGA", "PBM E-score": 0.0302}, {"sequence": "CTGCTATC", "PBM E-score": 0.105}, {"sequence": "AGGGTTAA", "PBM E-score": -0.259}, {"sequence": "AATTCGGG", "PBM E-score": 0.287}, {"sequence": "AAAGCCAG", "PBM E-score": -0.207}, {"sequence": "CCCACTCA", "PBM E-score": -0.272}, {"sequence": "CATCGTAG", "PBM E-score": -0.191}, {"sequence": "CCTAGTTA", "PBM E-score": -0.00312}, {"sequence": "ACGCTTAC", "PBM E-score": -0.0893}, {"sequence": "ACGAGTCC", "PBM E-score": 0.0272}, {"sequence": "GGCCATAC", "PBM E-score": 0.17}, {"sequence": "GGACCAAA", "PBM E-score": 0.273}, {"sequence": "CATATCAC", "PBM E-score": -0.113}, {"sequence": "ATTGTAGC", "PBM E-score": -0.0987}, {"sequence": "AGGTATCA", "PBM E-score": -0.171}, {"sequence": "ATCTATCC", "PBM E-score": 0.228}, {"sequence": "TATCCCAA", "PBM E-score": -0.0492}, {"sequence": "ACGTTACG", "PBM E-score": -0.178}, {"sequence": "ACGACACG", "PBM E-score": 0.033}, {"sequence": "GTAACCCA", "PBM E-score": 0.00706}, {"sequence": "AGACTTAG", "PBM E-score": -0.2}, {"sequence": "ACTAAGAA", "PBM E-score": 0.102}, {"sequence": "AGGAACAA", "PBM E-score": -0.132}]}]}
